Laboratory results: patent US20040209310A1 (published 2004)

Biological target: T1, myc-tagged full-length F-spondin (human, UniProt Q9HCB6 29-807)
T1 construct: It is used here because this construct is also full-length F-spondin from the same clone (ATCC 2190694); also called secreted myc-tagged recombinant F-spondin; pcDNA4-His/myc-F spondin; not shown: His/myc tag of vector pcDNA4-His/myc B
T1 sequence: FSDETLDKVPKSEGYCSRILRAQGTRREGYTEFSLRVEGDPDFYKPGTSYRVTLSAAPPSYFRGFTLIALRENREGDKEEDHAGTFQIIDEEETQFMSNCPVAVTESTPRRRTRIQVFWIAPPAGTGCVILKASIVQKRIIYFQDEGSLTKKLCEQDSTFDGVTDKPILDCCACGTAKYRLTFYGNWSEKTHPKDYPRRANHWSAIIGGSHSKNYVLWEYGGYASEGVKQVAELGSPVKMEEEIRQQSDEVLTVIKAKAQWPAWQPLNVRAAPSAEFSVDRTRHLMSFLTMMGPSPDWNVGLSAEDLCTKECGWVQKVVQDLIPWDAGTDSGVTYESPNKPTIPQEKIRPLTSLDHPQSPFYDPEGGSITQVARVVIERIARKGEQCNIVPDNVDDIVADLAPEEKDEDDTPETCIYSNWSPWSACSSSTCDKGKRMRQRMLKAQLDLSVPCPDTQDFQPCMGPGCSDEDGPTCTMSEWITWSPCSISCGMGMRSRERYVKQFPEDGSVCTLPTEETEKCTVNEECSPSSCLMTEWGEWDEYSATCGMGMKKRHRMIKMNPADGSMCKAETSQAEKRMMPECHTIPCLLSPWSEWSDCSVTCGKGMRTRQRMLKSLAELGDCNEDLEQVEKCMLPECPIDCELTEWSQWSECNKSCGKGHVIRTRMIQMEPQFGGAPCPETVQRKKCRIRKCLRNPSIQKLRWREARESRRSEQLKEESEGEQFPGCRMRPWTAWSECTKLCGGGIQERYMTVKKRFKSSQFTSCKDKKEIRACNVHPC
Experiment: pulldown of secreted myc-F-spondin on Ig-APP.2 immobilized on protein A-Sepharose, immunoblot
Procedure: These studies were performed essentially as described (Ichtchenko et al., 1995, Cell 81:435-443; Hata et al., Nature 366:347-351). Brain membrane extract was precleared by incubation (2 h at 4° C.) with glutathione agarose and incubated overnight at 4° C. with immobilized GST-CAPPD on glutathione agarose beads preequilibrated with buffer B. Beads were washed with buffer B and serially eluted with 2 ml of buffer B containing 0.3 M NaCl, 0.5 M NaCl, 1.0 M NaCl, or 1.0 M NaCl, 10 mM EGTA, and 5 mM EDTA (instead of 2 mM CaCl2). Eluted proteins were analyzed by SDS-PAGE and Coomassie blue staining. Bound proteins were identified by liquid chromatography/mass spectroscopy of tryptic fragments. For pulldown assays, the medium from COS cells transfected with pcDNA4-His/myc-F spondin or pcDNA-His/myc-Mindin (collected 48-72 h post transfection) was adjusted to (final concentrations) 10 mM HEPES-NaOH pH 7.4, 1 mM EGTA, 1% Triton X-100, proteinase inhibitors were added, and the supernatant was precleared with immobilized GST orIg-C. The treated medium was then incubated overnight at 4° C. with GST or GST-CAPPD immobilized on glutathione agarose or with various Ig-APP fusion proteins immobilized on protein-A Sepharose. Glutathione agarose or Protein A beads were washed 4-5× with buffer B, and examined by SDS-PAGE and immunoblotting. […]

- binding result: no binding
B1: Ig-APP.2 (pCMVIg-APP.2, APP695 […] fused to the Fc-region of human immunoglobulin) (Fc fusion)
chain: LEVPTDGNAGLLAEPQIAMFCGRLNMHMNV[sequence of about 40 residues not given]ANQPVTIQNWCKRGRKQCKTHPHFVIPYRCLVGEFVSDALLVPDKCKFLHQERMDVCETHLHWHTVAKETCSEKSTNLHDYGMLLPCGIDKFRGVEFVCCPLAEESDNVDSADAEEDD
notes: range […]; also called Ig-fusion protein that includes only the N-terminal domains of APP; CRD alone; not shown: Fc region of human immunoglobulin from vector pCMV-Ig9
